Experimental data reported in ChEMBL document CHEMBL4888484, “Replenishing the malaria drug discovery pipeline: Screening and hit evaluation of the MMV Hit Generation Library 1 (HGL1) against asexual blood stage Plasmodium falciparum ,using a nano luciferase reporter read-out” (2022).
Hit rate of the full screen: of about 4,800 compounds, about 410 (8.5%) showed an effect of 50% or more. The list shows a part of the results.

tested on: Plasmodium falciparum; assay: Confirmatory screen in NF54 pLDH assay, in single point, at 2uM, 72h; format: functional, Erythrocyte; conditions: timepoint 72 hour

SMILES	% Inhibition
Cc1cc(C)cc(OCC(=O)NCCCN(C)C)c1	-10%
COc1ccc(-c2onc(C)c2C(=O)NCCOc2ccccc2)cc1	-14%
Cc1noc(-c2cccc(F)c2)c1C(=O)NCCCN(C)c1ccccc1	-10%
COCCN(Cc1c(-c2ccccc2)noc1N1CCOCC1)C(=O)C1CCCC1	-15%
CC[C@H]1c2cccn2CCN1C(=O)CCc1cscn1	-22%
Cc1c(CCO)c(=O)n(C)n1C(=O)c1ccc(F)cc1	7%
CN(C(=O)[C@@H]1CCCN1C(=O)C1CCCC1)C1CCN(c2cnccn2)CC1	-7%
CC(C)(C)OC(=O)N1CCC(c2c(C(=O)Nc3ccc(Cl)cc3Cl)cnn2-c2cccc(F)c2)CC1	-3%
Cc1nc2nc(N3CCCCC3)sc2c(=O)[nH]1	15%
Nc1nonc1C(=O)N1CCCN(S(=O)(=O)c2cccs2)CC1	-21%
O=C(c1ccccc1)N1N=C(C(F)(F)F)C2CCCCCC21O (configuration not stated)	-10%
Cn1cc(N)c(Oc2ccc(F)cc2F)n1	10%
CN(C)c1ccc(C(=O)N2CC[C@H]3NC(=O)N(Cc4ccccc4)C(=O)[C@H]32)cc1	-5%
O=C(O)Cc1sc(-c2ccccc2)nc1O	9%
Cc1cc(NC[C@H](O)c2cnn(C)c2)ncc1Br	11%
CCOc1c(Br)cc(/C=C(/NC(C)=O)C(=O)O)cc1Br	13%
CCCc1cc(C(=O)N2CCCCCC2)cs1	-6%
Cc1cn([C@H]2C[C@@H](OC(=O)c3ccccc3)[C@@H](CO)O2)c(=O)[nH]c1=O	-3%
O=C(C[C@@H]1NC(=O)c2ccccc2NC1=O)NCc1ccc(Cl)cc1Cl	-6%
O=C(C[C@H]1CCC(=O)N(Cc2ccccc2)CC1)NC1CCN(Cc2ccccc2)CC1	6%
Cc1nn(C)cc1[C@@H]1CC(=O)Nc2c1cnn2C(C)(C)C	-21%
O=C(NC1CC1)N[C@H]1CCN(C(=O)C(C2CCC2)C2CCC2)C1	15%
COc1ccc(CCn2cc(C(N)=O)c(-c3ccccc3)n2)cc1	2%

SMILES	% Inhibition
Cc1ccc(-n2nnnc2-c2cnc3cc4c(cc3c2C)OCO4)cc1	-11%
Cc1cc(CNC(=O)c2csc(=O)[nH]2)n(C)n1	12%
COC(=O)c1cc(NC(=O)N2CCO[C@H](C(=O)OC)C2)c(F)cc1F	6%
CCCN(C(=O)c1nccnc1N)C1CC(OCC)C12CCCC2 (configuration not stated)	2%
CCOc1ccc(-[n+]2cc(-c3ccccc3)n3c2CCC3)cc1	70%
COc1ccc(NC(=O)Cn2cnc3nc(N4CCOCC4)ncc3c2=O)cc1	15%
CC[C@@](C)(C(=O)NC1CCCC1)N(Cc1ccco1)C(=O)c1ccc2c(c1)OCO2	-9%
COc1ccc(NC(=O)C2=Cc3cc(Cl)cc(OC)c3OC=C2)cc1	-1%
CN(C)c1nc(N)cc(-c2cccc3cccnc23)n1	55%
COc1ccc(CC[C@](C)(O)c2cc(C(N)=O)no2)cc1	-11%
COc1ccc(-c2c(C)nn3c(N4CCC(C(=O)NC5CC5)CC4)cc(C)nc23)cc1OC	16%
Cc1cc(F)c(C(=O)OCc2ccc3[nH]nnc3c2)cc1F	6%
C[C@H](NC(=O)c1cc(C2CC2)[nH]n1)c1nccs1	-5%
CCN1c2cc(C(=O)N3CCCCC3)ccc2C(=O)N2CCCCC[C@H]21	6%
O=C(Nc1ccc(N2CCOCC2)cc1)Nc1ccc(F)cc1F	7%
O=C(NCc1cc(F)cc(F)c1)c1csc(C(=O)N2CCCC2)n1	-9%
CCN(CCO)S(=O)(=O)c1ccc2c(c1)CCO2	-8%
Cc1cc(N(C)CCC2CC2)nc([C@H](C)N(C)CCC2CC2)n1	61%
O=C1OC(c2ccccc2)=NC1(Cc1ccc(Cl)cc1)Cc1ccc(Cl)cc1	4%
Cn1cccc1C(=O)N1CCCN(S(C)(=O)=O)[C@H]2CCC[C@H]2C(=O)NCC1	11%
COC(C)(C)c1nc(Cn2cnc3ccccc32)no1	6%
Cn1cc(CCCNc2ccc(F)cn2)cn1	9%
COc1cc(NC(=O)CN2C(=O)N[C@](C)(c3ccc4c(c3)OCCO4)C2=O)c(OC)cc1Cl	7%

SMILES	% Inhibition
Cn1cccc1C(=O)NCCNC(=O)[C@@H]1CCO1	11%
COC(=O)c1ccc(N(C)CC(=O)Nc2cccc(C)c2C)nn1	11%
COc1ccc(-c2cc(C(=O)N[C@H]3CCN(c4ccc(=O)n(C)n4)C3)c(C)n2C)cc1	41%
COc1ncccc1C(=O)NC[C@H](C)S(N)(=O)=O	6%
CCn1c(=O)c(CCC(=O)Nc2cccc(C)c2C)nc2c(C)nn(-c3ccc(C)cc3)c21	10%
COc1ccc(-c2nn3c([C@H]4CCCN(S(C)(=O)=O)C4)nnc3s2)c(OC)c1	7%
COc1cc(OC)c(NC(=O)COc2ccccc2-c2nc3ccccc3s2)cc1Cl	7%
Cc1nnc(-c2ccccc2NC(=O)CCC2CCC(C)O2)o1 (configuration not stated)	-16%
O=C(CN1CCN(Cc2cccc(Cl)c2)C1=O)NC1CC1	-3%
COc1ccc(-[n+]2c(-c3ccccc3)cn3c2CCC3)cc1	59%
O=C(c1cc(-c2ccccc2Cl)nc2ccccc12)n1nnc2ccccc21	-12%
Cc1cc(N2C[C@H]3CC[C@@H](C2)[C@H]3N(C)C)nc(Nc2cccc(O)c2)n1	86%
COc1cc(C(=O)NC(C)(C)c2c(C)noc2C)on1	7%
CCNC(=O)C(=O)NCc1ccc(OC)cc1	-20%
Cc1nn(CCOc2ccccc2)c(=O)n1-c1ccc(C(C)C)cc1	14%
CCc1nn2c(c1-c1ccc(C)cc1)NC(=O)C[C@H]2C(=O)O	12%
O=C(CN1CCC[C@H]1C1CCCC1)NCC1CCCCC1	61%
CCOC(=O)[C@@H](NC(=O)Nc1ccccc1C(F)(F)F)C(F)(F)F	11%
CC1CCC(N2C[C@@H](C(=O)OCC(C)(C)C)CC2=O)CC1 (some centres not stated)	12%
Cc1ccc(C(=O)N2CCCC23CCC3)nn1	-9%
Cc1ccc(Nc2c(-c3ccco3)nc3nc(C)cc(C)n23)cc1	-1%
